# Reference: PubChem BioAssay AID1346428 (National Center for Advancing Translational Sciences (NCATS), 2018)
# Several values for one entry are separate records, joined by “and”; a condition that tells them apart may be missing. Equal entries are not always repeated. Out of some 48,000 compounds screened, about 1,200 (2.5%) were called active. About 2% were inconclusive and are not listed.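 The calls were made as follows: active = activation of at least 60% and not above a set upper limit (about 1 call in 100 departs from these limits); inconclusive = activation of 40% to 60%, or above that upper limit; inactive = activation under 40%.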 This is one part of the list. Some compounds were tested as several samples or in several runs, with calls that do not always agree.
# Target: Probable G-protein coupled receptor 32 (Homo sapiens) (UniProt O75388)
# Test: qHTS for Agonists of Human Resolvin D1 Receptor DRV1; also: 0% is about no effect
# Settings: CHO-K1 GPR32 beta-arrestin PathHunter luminescence, 90 min; at 76.9 µM; stronger effect = higher value; zero percent set by DMSO-only wells
# How it was run: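 PathHunter beta-arrestin recruitment in CHO-K1 cells stably expressing ProLink-tagged GPR32. Cells were exposed to compound for 90 min at 37 C, then chemiluminescence was read after 1 h detection at ambient temperature; DMSO served as basal control.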
# Sequence of UniProt O75388 (O75388 whole entry, looked up): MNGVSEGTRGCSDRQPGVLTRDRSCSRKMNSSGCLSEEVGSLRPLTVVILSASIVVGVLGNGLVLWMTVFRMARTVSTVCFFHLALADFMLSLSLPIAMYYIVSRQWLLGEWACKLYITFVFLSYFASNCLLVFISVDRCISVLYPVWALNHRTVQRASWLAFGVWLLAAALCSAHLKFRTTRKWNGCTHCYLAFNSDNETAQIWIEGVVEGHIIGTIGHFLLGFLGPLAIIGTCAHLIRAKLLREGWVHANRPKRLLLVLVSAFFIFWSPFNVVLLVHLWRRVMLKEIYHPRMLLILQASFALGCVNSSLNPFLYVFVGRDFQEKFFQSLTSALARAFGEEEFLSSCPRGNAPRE
row,Compound,activation
1,COc1ccccc1NC(=O)c1c(NCc2ccc(OC)c(OC)c2OC)sc2c1CCC2,inactive: -16.4%
2,Cc1cc2c(cc1NS(=O)(=O)c1ccc(F)cc1)n(C)c(=O)c(=O)n2C,inactive: -1.28%
3,CCN1CCOC(=O)C1CC(=O)Nc1cc(C)ccc1OC (centres undefined),inactive: -52.5%
4,Cc1cccc(NC(=O)c2ccc3snnc3c2)c1,inactive: -10.7%
5,Cc1ccc2nc(-c3ccc(Cl)c(NC(=O)COc4cccc(C)c4C)c3)oc2c1,inactive: -2.07%
6,CCOC(=O)c1sc(NC(=O)/C=C/c2ccc(C(C)C)cc2)c(C(=O)OCC)c1C,inactive: -3.62%
7,CCCc1cc(=O)[nH]c2nnc(SC(C)CC)n12 (centres undefined),inactive: 15%
8,CCN(CC)c1ccc(NC(=O)CCS(=O)(=O)c2cc3c(cc2Cl)NC(=O)CO3)c(C)c1,inactive: 5.11%
9,Cc1ccc2nc(N3CCN(c4cccc(C(F)(F)F)c4)CC3)c3nnnn3c2c1,inactive: 0.61%
10,CCc1cccc(C)c1NS(=O)(=O)c1cc2[nH]c(=O)c(=O)[nH]c2cc1C,inactive: -3.52%
11,CC(C)COc1ccc(C(=O)NCC2(N3CCN(C)CC3)CCCCC2)cc1,inactive: -22.5%
12,CCc1ccc2ncc3c(-c4ccccc4)nn(-c4ccccc4)c3c2c1,inactive: -7.12%
13,COCCNC(=O)Cn1nc(C)c2c(C)n(-c3ccc(C)cc3)nc2c1=O,inactive: -13.9%
14,CCc1ccc(NCc2cc3cc4c(cc3n(CC(=O)Nc3cccc(OC)c3)c2=O)OCO4)cc1,inactive: -43.8%
15,CCc1nnc(SCC(=O)Nc2ccccc2Cl)nc1CC,inactive: -16.7%
16,Cc1ccc(C)c(NC(=O)CC2NCCNC2=O)c1 (centres undefined),inactive: 2.08%
17,Cc1cc(NS(=O)(=O)c2ccc(NC(=O)c3ccccc3C)cc2)nc(C)n1,inactive: -3.23%
18,COc1cccc(NC(=O)CSc2nnc3scc(-c4ccc(Cl)cc4)n23)c1,inactive: -10.8%
19,CC[N+](C)(C)c1cccc(O)c1,inactive: -3.08% and inactive: 4.63%
20,COc1ccc(N(C(=O)c2ccc(OC)c(OC)c2)S(=O)(=O)c2ccc(Cl)cc2)cc1,inactive: -0.473%
21,Cc1ccc(NC(=O)C2CCCN(c3nnc(-n4c(C)ccc4C)s3)C2)c(C)c1 (centres undefined),inactive: -27.7%

row,Compound,activation
1,N#Cc1ccccc1Cn1c(=O)n(CCCC(=O)NCc2ccc3c(c2)OCO3)c(=O)c2sccc21,inactive: -16.9%
2,Cc1csc2nc(COC(=O)c3cccc(NC(=O)COc4ccc(Cl)cc4)c3)cc(=O)n12,inactive: -6.15%
3,O=C(CCCCn1c(=O)c2ccccc2n(Cc2ccccc2Cl)c1=O)NCCc1ccccc1,inactive: -11.4%
4,Cc1ccn2c(=O)cc(COc3ccc(NC(=O)COc4ccc(Cl)cc4)cc3)nc2c1,inactive: -2.87%
5,CCCN(CCC)C(=O)Cn1c(=O)n(-c2cccc(OC)c2)c(=O)c2c3c(sc21)CCCC3,inactive: -2.93%
6,CCCC(C(=O)NCc1cccc(Cl)c1)N1Cc2ccccc2C1=O (centres undefined),inactive: -4.36%
7,O=C(/C=C/c1ccccc1)N1CCN(Cc2cc(=O)n3nc(-c4ccccc4F)sc3n2)CC1,inactive: -9.12%
8,CC(C)(C)C(=O)Cn1c(=O)n(-c2ccc(Cl)cc2)c(=O)c2c3c(sc21)CCCC3,inactive: -23.6%
9,COc1cccc(CNC(=O)C(=O)NCC(c2ccco2)S(=O)(=O)c2cccs2)c1 (centres undefined),inactive: -16.7%
10,CCOc1ccccc1CNC(=O)C1CCN(C(=O)N2CC(CC)Oc3ccc(C)cc32)CC1 (centres undefined),inactive: -12.4%
11,CC(=O)N1CCc2cc(CNC(=O)Cc3ccc(F)cc3)ccc21,inactive: -7.8%
12,O=C(Cn1c(SCCOc2ccccc2)nc2ccccc21)N1CCOCC1,inactive: -16%
13,C[C@@H](NCCCc1cccc(C(F)(F)F)c1)c1cccc2ccccc12,inactive: 15.3%
14,COc1ccc(N2CC(NC(=O)/C=C\c3ccccc3)CC2=O)cc1 (centres undefined),inactive: -13.6%
15,Cc1cc(OCCn2cc(C(=O)c3cccs3)c3ccccc32)ccc1Cl,inactive: -23%
16,Cc1c(C(=O)OCCOc2ccccc2)[nH]c2c1C(=O)CC(c1ccccc1)C2 (centres undefined),inactive: 13.2%
17,O=C(Nc1ccc2nc(SCC(=O)N3CCOCC3)sc2c1)c1cccc(Cl)c1,inactive: 2.25%
18,COc1ccc(NC(=O)Cn2c(=O)n(CCC(=O)NCc3ccccc3OC)c(=O)c3ccccc32)cc1Cl,inactive: 4.72%
19,Cc1ccc(Cn2ccn(Cc3ccccc3F)c(=O)c2=O)cc1,inactive: -19.9%
20,COc1ccc(Cl)cc1N(C)C(=O)c1ccc2c(=O)n3c(nc2c1)CCCCC3,inactive: -7.13%
21,Cc1cccc(N2CCN(CCCNc3ncnc4onc(-c5ccc(Cl)cc5)c34)CC2C)c1 (centres undefined),inactive: -12.1%

row,Compound,activation
1,CSc1ccc(CCNC(=O)c2ccc(-c3nc(COc4ccccc4)c(C)o3)cc2)cc1,inactive: -9.91%
2,Cc1c(Cl)cccc1NC(=O)COCc1cc(-c2ccc3c(c2)OCO3)on1,inactive: -14.5%
3,COc1cccc(CNC(=O)CCc2c(C)nc3c(c(C)nn3-c3ccc(C)c(C)c3)c2C)c1,inactive: -0.975%
4,Cc1nc2c(-c3ccccc3)c(C)nn2c(C)c1CCC(=O)N1CCN(c2ccc(F)cc2)CC1,inactive: -21.7%
5,COc1ccc(CCNC(=O)CCn2c(=O)c3ccccc3n(Cc3cc(C)ccc3C)c2=O)cc1OC,inactive: -6.9%
6,COC(=O)Cn1nc(C)c2c(C)n(-c3ccccc3)nc2c1=O,inactive: -10.6%
7,CCCN1C(=O)c2[nH]nc(-c3ccccc3O)c2C1c1ccc(OCc2ccccc2)c(OC)c1 (centres undefined),inactive: 9.58%
8,C[C@@H](O)[C@H]1C(=O)N2C(C(=O)O)=C([C@H]3CCCO3)S[C@H]12,inactive: -3.78%
9,Cc1ccc(C(=O)Nc2cccc(OCc3cc(=O)n4c5c(sc4n3)CCCC5)c2)cc1,inactive: 14.3%
10,COc1cc(C(=O)N2CCN(c3ccc(Nc4ccc(C)cc4)nn3)CC2)cc(OC)c1OC,inactive: -5.58%
11,COc1cccc2c1cc1c(=O)n(CC(=O)NC3CCCCC3)nc(C)n12,inactive: -4.22%
12,CCOC(=O)c1ccc(NC(=O)Cn2c(=O)cc(C)c3c(C)nn(-c4cccc(F)c4)c32)cc1,inactive: -14%
13,OCCN1CCN(CC/C=C2/c3ccccc3Sc3ccc(C(F)(F)F)cc32)CC1,active: 61.7% and inactive: -26.1%
14,NC(=O)CSc1oc(-c2ccco2)nc1S(=O)(=O)c1ccc(Cl)cc1,inactive: -26.3%
15,Cc1ccc(NC(=O)c2cc3cc(C)ccc3n2C)cc1,inactive: 12.4%
16,Cc1nn(Cc2ccccc2Cl)c(C)c1NC(=O)c1cc(C(C)C)on1,active: 86.1%
17,CCCc1cnc2c(c1SCC(=O)N1CCC(C)CC1)c(=O)n(C)c(=O)n2C,inactive: -9.26%
18,O=C(NCCc1ccccc1)c1sc2ncccc2c1-n1cccc1,inactive: -18%
19,Cc1ccc(NC(=O)C(Cc2ccccc2)NS(=O)(=O)c2ccc3c(c2)oc(=O)n3C)cc1F (centres undefined),inactive: 16.7%
20,O=C(Nc1nc2n(n1)C(c1ccc(F)cc1)C=C(c1ccccc1)N2)c1ccc(Cl)cc1 (centres undefined),inactive: -3.96%
21,Cc1ccc(N(CC(=O)N2CCN(c3ccccc3F)CC2)S(=O)(=O)c2c(C)noc2C)cc1,inactive: -15.8%

row,Compound,activation
1,CCOC(=O)CSc1ccc2nnc(CCNS(=O)(=O)c3ccccc3)n2n1,inactive: -7.01%
2,Cc1ccc(CCNC(=O)C(NS(=O)(=O)c2ccc3c(c2)oc(=O)n3C)C(C)C)cc1 (centres undefined),inactive: 1.38%
3,O=C(Nc1cccc(C(=O)OCc2cc(=O)n3nc(C4CC4)sc3n2)c1)c1cccc(F)c1,inactive: 3.1%
4,COc1cc2c(cc1OC)C(c1ccc(F)cc1)N(c1cccc(C#N)c1)C(=O)C2 (centres undefined),inactive: 8.94%
5,Cn1c(=O)c(=O)n(C)c2cc(S(=O)(=O)N3CCCC3C(=O)Nc3ccccc3F)ccc21 (centres undefined),inactive: -14%
6,O=C(NCCc1ccccc1)c1ccc2c(c1)N(Cc1c(F)cccc1Cl)C(=O)CS2,inactive: -8.73%
7,CCOc1ccc(-n2c(SCC(=O)NCC3CCCO3)nc3c([nH]c4ccccc43)c2=O)cc1 (centres undefined),inactive: -11.7%
8,COc1ccc(Cn2ccn(Cc3cccc(C)c3)c(=O)c2=O)cc1,inactive: -6.74%
9,COc1cc2c(cc1OC)C(COc1ccc3c(C)cc(=O)oc3c1)N(C(=O)c1cccc(C)c1)CC2 (centres undefined),inactive: 4.66%
10,Cc1ccc(N(CC(=O)Nc2cccc(F)c2)S(=O)(=O)c2cccs2)cc1,inactive: -4.06%
11,COc1ccc(NC(=O)CSc2nncn3c2cc2oc(C)cc23)cc1OC,inactive: -4.1%
12,CCc1ccc(NC(=O)CSc2nccn2-c2ccc(OC)cc2)cc1,inactive: 0.156%
13,CC1(C(=O)Nc2cccc(Br)c2)Cc2ccccc2C(=O)O1 (centres undefined),inactive: 23.6%
14,CC(=O)N1CCCc2cc(S(=O)(=O)N3CCC(C(=O)NC4CCC(C)CC4)CC3)ccc21 (centres undefined),inactive: -0.528%
15,CNC(=O)C1CCC(Cn2c(=O)c3sccc3n(Cc3ccc(F)cc3)c2=O)CC1 (centres undefined),inactive: 10.5%
16,COCCCNC(=O)CCC(=O)N1Cc2cccc(OC)c2Oc2ncccc21,inactive: -6.23%
17,CCn1c(C(=O)NCc2ccccc2C)cc2oc3ccccc3c21,inactive: 32.7%
18,COC(=O)c1ccccc1NC(=O)c1ncoc1-c1ccco1,inactive: 12.9%
19,CCCc1cc(=O)oc2c3c(ccc12)OCN(Cc1ccc(OC)cc1)C3,inactive: -24%
20,NC(N)=NS(=O)(=O)c1ccc(N)cc1,inactive: -3.49%
21,Cc1ccccc1OCCSc1nc2ccc(NC(=O)c3ccccc3)cc2s1,inactive: 8.62%
